Measurements published in the supplement of paper PMC12067093, “Discovery and optimisation of a covalent ligand for TRIM25 and its application to targeted protein ubiquitination” (Chemical Science, 2025).
The full data set covers some 21,000 targets. This sample favours those with the largest changes.

Compound: CC1Cc2ccccc2N1C(=O)C1CCCN(C1)C(=O)CCl (mixture of isomers) [TRIM25 ligand 11 (diastereomer mixture)]
Assay: probe-labelled cysteine peptide fold change vs DMSO (competition) (log2 fold change); higher = less target engagement (more negative = stronger competition)
Details: THP-1, incubation time: 4 h
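Also: competitive chemoproteomic profiling in live THP-1 cells with an iodoacetamide desthiobiotin (IA-DTB) probe, comparing probe-labelled peptide intensities in compound-treated cells against DMSO-treated controls.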

Chain of UniProt Q03405 (Q03405 whole entry, looked up): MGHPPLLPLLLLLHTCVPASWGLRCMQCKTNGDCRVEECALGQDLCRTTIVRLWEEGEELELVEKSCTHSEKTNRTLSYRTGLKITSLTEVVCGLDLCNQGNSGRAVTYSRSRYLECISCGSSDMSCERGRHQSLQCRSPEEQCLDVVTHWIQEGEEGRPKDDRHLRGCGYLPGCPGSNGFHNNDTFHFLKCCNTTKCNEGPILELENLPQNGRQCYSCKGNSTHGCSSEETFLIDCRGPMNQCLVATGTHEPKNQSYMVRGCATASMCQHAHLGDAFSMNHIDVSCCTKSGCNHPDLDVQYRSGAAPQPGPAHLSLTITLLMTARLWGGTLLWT
Chain of UniProt Q8IZL8 (Q8IZL8 whole entry, looked up): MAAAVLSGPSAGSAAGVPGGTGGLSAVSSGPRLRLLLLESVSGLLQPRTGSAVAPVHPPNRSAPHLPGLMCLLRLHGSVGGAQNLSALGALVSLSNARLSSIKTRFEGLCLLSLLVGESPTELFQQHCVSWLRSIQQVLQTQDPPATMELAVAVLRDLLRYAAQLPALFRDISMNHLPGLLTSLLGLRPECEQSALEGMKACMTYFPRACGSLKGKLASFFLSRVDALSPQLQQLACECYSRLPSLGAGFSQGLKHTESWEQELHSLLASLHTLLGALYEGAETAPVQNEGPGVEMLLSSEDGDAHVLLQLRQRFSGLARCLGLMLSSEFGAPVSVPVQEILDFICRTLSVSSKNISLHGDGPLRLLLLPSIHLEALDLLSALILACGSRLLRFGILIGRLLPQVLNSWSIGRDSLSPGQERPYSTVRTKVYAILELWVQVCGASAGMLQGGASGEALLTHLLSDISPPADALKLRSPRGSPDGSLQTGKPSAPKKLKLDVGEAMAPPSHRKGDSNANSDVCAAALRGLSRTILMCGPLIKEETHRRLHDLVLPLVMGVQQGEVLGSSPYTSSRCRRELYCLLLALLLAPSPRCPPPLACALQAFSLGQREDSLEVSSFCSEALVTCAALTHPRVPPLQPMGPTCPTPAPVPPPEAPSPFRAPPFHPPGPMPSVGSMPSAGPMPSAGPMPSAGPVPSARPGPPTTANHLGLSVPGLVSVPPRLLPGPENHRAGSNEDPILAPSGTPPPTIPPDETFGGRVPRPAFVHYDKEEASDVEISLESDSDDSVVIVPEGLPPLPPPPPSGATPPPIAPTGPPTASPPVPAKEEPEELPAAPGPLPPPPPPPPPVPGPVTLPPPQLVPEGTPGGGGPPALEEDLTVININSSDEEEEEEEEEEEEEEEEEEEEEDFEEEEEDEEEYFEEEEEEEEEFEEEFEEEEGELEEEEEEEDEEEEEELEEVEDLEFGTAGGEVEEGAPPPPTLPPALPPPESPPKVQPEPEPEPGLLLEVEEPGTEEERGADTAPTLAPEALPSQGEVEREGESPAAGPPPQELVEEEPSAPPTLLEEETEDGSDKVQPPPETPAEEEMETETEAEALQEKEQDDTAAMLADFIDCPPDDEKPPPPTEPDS
Chain of UniProt Q9NVS9 (Q9NVS9 whole entry, looked up): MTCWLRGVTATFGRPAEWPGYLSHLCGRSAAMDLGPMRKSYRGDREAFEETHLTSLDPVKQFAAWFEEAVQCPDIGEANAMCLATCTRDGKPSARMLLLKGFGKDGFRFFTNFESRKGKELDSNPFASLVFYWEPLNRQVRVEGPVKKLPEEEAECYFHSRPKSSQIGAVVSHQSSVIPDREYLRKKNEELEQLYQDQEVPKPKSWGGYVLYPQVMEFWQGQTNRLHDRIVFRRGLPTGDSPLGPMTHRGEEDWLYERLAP
Chain of UniProt P30405 (P30405 whole entry, looked up): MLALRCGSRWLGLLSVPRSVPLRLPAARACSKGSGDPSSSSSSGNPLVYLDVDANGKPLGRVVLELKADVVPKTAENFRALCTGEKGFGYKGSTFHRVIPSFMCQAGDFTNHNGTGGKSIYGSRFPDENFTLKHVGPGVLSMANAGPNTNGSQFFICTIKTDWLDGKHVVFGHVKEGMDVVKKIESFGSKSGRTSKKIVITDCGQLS
Chain of UniProt Q99575 (Q99575 whole entry, looked up): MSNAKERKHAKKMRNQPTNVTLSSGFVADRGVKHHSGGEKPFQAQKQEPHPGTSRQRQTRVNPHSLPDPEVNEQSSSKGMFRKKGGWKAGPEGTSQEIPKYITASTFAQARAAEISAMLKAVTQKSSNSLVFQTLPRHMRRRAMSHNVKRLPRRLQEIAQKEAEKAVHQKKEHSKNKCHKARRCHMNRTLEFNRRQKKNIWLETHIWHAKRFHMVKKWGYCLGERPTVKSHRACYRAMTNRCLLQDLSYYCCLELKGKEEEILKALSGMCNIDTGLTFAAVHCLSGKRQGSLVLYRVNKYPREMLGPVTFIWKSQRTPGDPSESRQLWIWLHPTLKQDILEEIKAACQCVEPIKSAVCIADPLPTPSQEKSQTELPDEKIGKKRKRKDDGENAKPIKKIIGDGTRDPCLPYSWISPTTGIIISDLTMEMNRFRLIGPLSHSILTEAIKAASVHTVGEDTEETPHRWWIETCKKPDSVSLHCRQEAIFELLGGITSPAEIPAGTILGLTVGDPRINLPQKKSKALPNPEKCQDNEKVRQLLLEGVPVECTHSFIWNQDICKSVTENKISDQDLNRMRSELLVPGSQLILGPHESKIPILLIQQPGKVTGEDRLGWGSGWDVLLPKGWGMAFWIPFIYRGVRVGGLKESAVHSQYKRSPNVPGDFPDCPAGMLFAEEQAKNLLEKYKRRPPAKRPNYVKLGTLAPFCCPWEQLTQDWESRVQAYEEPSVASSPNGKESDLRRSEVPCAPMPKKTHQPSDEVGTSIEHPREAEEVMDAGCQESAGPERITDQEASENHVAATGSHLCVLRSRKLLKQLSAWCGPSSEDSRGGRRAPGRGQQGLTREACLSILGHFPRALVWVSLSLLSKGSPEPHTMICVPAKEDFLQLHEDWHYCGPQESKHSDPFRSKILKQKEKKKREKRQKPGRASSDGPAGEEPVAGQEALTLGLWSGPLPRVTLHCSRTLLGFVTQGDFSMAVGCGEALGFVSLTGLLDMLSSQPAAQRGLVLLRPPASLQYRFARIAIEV
Chain of UniProt Q9UPN7 (Q9UPN7 whole entry, looked up): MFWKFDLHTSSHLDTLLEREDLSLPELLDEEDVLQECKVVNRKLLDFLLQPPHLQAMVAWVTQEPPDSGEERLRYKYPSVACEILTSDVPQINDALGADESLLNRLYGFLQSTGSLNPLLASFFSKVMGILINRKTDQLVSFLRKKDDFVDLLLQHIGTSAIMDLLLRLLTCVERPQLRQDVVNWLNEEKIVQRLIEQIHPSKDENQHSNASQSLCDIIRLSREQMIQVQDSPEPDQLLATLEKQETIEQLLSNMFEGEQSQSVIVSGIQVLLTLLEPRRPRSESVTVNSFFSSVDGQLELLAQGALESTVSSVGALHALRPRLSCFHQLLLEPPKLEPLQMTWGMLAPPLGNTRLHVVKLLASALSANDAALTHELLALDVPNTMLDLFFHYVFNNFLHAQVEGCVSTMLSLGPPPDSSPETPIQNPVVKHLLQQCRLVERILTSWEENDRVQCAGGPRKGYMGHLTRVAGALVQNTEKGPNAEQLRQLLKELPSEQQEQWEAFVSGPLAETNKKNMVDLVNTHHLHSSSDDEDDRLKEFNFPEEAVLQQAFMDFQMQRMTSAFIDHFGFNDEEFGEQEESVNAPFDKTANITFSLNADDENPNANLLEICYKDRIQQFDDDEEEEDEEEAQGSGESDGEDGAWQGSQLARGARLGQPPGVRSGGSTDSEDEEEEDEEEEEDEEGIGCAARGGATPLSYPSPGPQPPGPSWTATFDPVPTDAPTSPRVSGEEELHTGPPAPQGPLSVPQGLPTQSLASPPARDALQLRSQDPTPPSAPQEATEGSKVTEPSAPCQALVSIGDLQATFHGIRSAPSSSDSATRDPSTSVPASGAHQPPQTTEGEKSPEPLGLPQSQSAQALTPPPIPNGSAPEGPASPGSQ
Chain of UniProt P29590 (P29590 whole entry, looked up): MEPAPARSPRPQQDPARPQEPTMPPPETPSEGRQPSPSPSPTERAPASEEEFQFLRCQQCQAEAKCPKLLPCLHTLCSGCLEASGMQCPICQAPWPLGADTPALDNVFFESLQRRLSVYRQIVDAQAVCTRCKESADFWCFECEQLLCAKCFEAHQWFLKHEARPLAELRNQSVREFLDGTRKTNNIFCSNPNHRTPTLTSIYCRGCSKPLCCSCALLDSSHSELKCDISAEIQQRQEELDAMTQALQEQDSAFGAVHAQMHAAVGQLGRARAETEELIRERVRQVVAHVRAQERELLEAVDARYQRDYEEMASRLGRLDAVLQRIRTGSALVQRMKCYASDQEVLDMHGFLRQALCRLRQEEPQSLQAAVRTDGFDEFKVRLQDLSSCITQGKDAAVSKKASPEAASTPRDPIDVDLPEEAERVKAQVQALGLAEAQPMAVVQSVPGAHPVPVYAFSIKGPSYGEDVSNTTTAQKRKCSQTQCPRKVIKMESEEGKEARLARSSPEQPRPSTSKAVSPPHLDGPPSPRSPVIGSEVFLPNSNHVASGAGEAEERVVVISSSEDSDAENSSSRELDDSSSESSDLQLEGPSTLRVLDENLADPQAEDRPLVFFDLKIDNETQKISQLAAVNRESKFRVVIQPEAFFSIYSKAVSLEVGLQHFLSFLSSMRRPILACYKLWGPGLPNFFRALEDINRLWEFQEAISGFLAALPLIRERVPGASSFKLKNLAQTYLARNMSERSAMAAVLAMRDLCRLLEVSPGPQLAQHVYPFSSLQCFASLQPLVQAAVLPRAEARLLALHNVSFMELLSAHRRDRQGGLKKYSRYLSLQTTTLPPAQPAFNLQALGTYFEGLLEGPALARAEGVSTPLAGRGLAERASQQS
Chain of UniProt Q9H8W4 (Q9H8W4 whole entry, looked up): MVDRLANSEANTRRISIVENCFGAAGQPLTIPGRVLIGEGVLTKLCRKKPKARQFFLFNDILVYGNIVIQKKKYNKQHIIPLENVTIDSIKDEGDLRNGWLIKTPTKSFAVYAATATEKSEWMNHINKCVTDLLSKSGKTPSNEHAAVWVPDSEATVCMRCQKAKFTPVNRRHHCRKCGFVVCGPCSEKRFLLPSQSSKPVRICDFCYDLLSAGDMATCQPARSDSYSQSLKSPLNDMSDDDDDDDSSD

Target	probe-labelled cysteine peptide fold change (10 µM)	probe-labelled cysteine peptide fold change (50 µM)
PLAUR_Q03405_98_ITSLTEVVCGLDLCNQGNSGR (UniProt Q03405)	-0.38	-0.0409
PELP1_Q8IZL8_71_SAPHLPGLMCLLR (UniProt Q8IZL8)	-0.312	-0.712
PPP2R5C_Q13362_49_QCCVLFDFVSDPLSDLK (UniProt Q13362)	-0.119	0.0246
POP1_Q99575_845_EACLSILGHFPR (UniProt Q99575)	0.137	0.144
PPP6R1_Q9UPN7_172_LLTCVERPQLR (UniProt Q9UPN7)	0.0673	0.288
PNPO_Q9NVS9_156_KLPEEEAECYFHSR (UniProt Q9NVS9)	0.0359	-0.0161
PECAM1_P16284_476+481_DNPTEDVEYQCVADNCHSHAK (UniProt P16284)	0.0845	-0.173
PLXNB2_O15031_279_DPDIHAAAFGTCLAASVAAPGSGR (UniProt O15031)	-0.284	-0.301
PPIF_P30405_104_VIPSFMCQAGDFTNHNGTGGK (UniProt P30405)	0.0126	-0.0527
PLEC_Q15149_3299_GCLDEETSR (UniProt Q15149)	0.0354	-0.102
PRKCD_Q05655_127_VLMSVQYFLEDVDCK (UniProt Q05655)	-0.0426	-0.198
PLEKHF2_Q9H8W4_129_CVTDLLSK (UniProt Q9H8W4)	0.123	0.4
PRKCD_Q05655_459_ATFYAAEIMCGLQFLHSK (UniProt Q05655)	0.102	0.299
POSTN_Q15063_80_TTVLYECCPGYMR (UniProt Q15063)	0.757	0.621
PML_P29590_479+484_CSQTQCPR (UniProt P29590)	-0.122	-0.364
